± gives the standard error. Variants at the floor of the assay are shown more often than the library holds them.

To fix the notation:
B1: glmS ribozyme (parent)
chain: AUAAAAGCGCCAGAACUACAGAAAUGUAGUUGACGAGGAGGAGGUUUAUCGAAUUUUCGGCGGAUGCCUCCAAA

The variants in the first data set derive from B1. The experiment in a line: self-cleavage kobs at 2500 uM GlcN6P; higher = faster cleavage; RNA array. The following applies: with glucosamine-6-phosphate. In short, it runs like this:
(§1)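 Glucosamine-6-phosphate in HEPES/KCl/Mg(OAc)2 buffer, at 40 μM to 10 mM, was flowed over barcoded ribozyme variants transcribed in situ by E. coli RNA polymerase on sequenced MiSeq chips. Tracking was through a hybridised Cy3 probe at 37 °C. kobs, kcat and KM came from exponential decay fits and weighted Michaelis–Menten fits of normalised per-tile medians.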
For A6G A14G G40A, the “self-cleavage kobs at 2500 uM GlcN6P” value amounted to 3.86e-05 ± 1.1e-05 s⁻¹.

G7C G35U A53C U55C C67U: the “self-cleavage kobs at 2500 uM GlcN6P” value is less than 1e-05 s⁻¹.

G9C U69A C70U: the “self-cleavage kobs at 2500 uM GlcN6P” value was less than 1e-05 s⁻¹.

As for G7U C16A U31C A39U U46A, the “self-cleavage kobs at 2500 uM GlcN6P” value is less than 1e-05 s⁻¹.

Take A14C G41C C68U: the “self-cleavage kobs at 2500 uM GlcN6P” value is less than 1e-05 s⁻¹.

With C8A G32U G43A, the “self-cleavage kobs at 2500 uM GlcN6P” value is less than 1e-05 s⁻¹.

As for G7C C10U C61A, the “self-cleavage kobs at 2500 uM GlcN6P” value is less than 1e-05 s⁻¹.

As to A6C A14G G35A U57A G66C C68U, the “self-cleavage kobs at 2500 uM GlcN6P” value was less than 1e-05 s⁻¹.

C8G U30G A48C: the “self-cleavage kobs at 2500 uM GlcN6P” value is less than 1e-05 s⁻¹.

In the case of A6U U45A C58A G62A, the “self-cleavage kobs at 2500 uM GlcN6P” value was less than 1e-05 s⁻¹.

In the case of G29U G35U G62U, the “self-cleavage kobs at 2500 uM GlcN6P” value was less than 1e-05 s⁻¹.

As for C8G G38C U54A G66A U69G, the “self-cleavage kobs at 2500 uM GlcN6P” value was less than 1e-05 s⁻¹.

Turning to A6G A12U C67U, the “self-cleavage kobs at 2500 uM GlcN6P” value came out at 0.000919 ± 0.00023 s⁻¹.

Regarding G37C C58G, the “self-cleavage kobs at 2500 uM GlcN6P” value is less than 1e-05 s⁻¹.

C8G G13A U69G: the “self-cleavage kobs at 2500 uM GlcN6P” value was less than 1e-05 s⁻¹.

Regarding A42C C67G C71U, the “self-cleavage kobs at 2500 uM GlcN6P” value is less than 1e-05 s⁻¹.

Consider A6C G13C A39U, for which the “self-cleavage kobs at 2500 uM GlcN6P” value is less than 1e-05 s⁻¹.

On to G41U G59U C71U, for which the “self-cleavage kobs at 2500 uM GlcN6P” value was less than 1e-05 s⁻¹.

Turning to G9C G44A C61A, the “self-cleavage kobs at 2500 uM GlcN6P” value was less than 1e-05 s⁻¹.

As for A6U C16G A36U G41U G43C, the “self-cleavage kobs at 2500 uM GlcN6P” value was less than 1e-05 s⁻¹.

As to A6G A36C G62U, the “self-cleavage kobs at 2500 uM GlcN6P” value is less than 1e-05 s⁻¹.

In the case of G7U U46C A48G C50U U55G, the “self-cleavage kobs at 2500 uM GlcN6P” value was less than 1e-05 s⁻¹.

For A36U U57G, the “self-cleavage kobs at 2500 uM GlcN6P” value was less than 1e-05 s⁻¹.

With G7C G62U C68G, the “self-cleavage kobs at 2500 uM GlcN6P” value was less than 1e-05 s⁻¹.

Take A6C A48C G51U: the “self-cleavage kobs at 2500 uM GlcN6P” value is less than 1e-05 s⁻¹.

For G7U C67A C68A, the “self-cleavage kobs at 2500 uM GlcN6P” value is less than 1e-05 s⁻¹.

Turning to G7A U49A A52C, the “self-cleavage kobs at 2500 uM GlcN6P” value was less than 1e-05 s⁻¹.

On to C8U G9U C10U U45C A48C C58U, for which the “self-cleavage kobs at 2500 uM GlcN6P” value was less than 1e-05 s⁻¹.

With G9C U46A G51C C70G, the “self-cleavage kobs at 2500 uM GlcN6P” value is less than 1e-05 s⁻¹.

On to A6G G43C C71G, for which the “self-cleavage kobs at 2500 uM GlcN6P” value is less than 1e-05 s⁻¹.

In the case of G7C A39U G41C U56C G60A C68A, the “self-cleavage kobs at 2500 uM GlcN6P” value is less than 1e-05 s⁻¹.

Regarding G44U U65G, the “self-cleavage kobs at 2500 uM GlcN6P” value was 5.71e-05 ± 1.8e-05 s⁻¹.

In the case of A6C G63U A64G, the “self-cleavage kobs at 2500 uM GlcN6P” value was less than 1e-05 s⁻¹.

Consider A6G G32C U49C A53G G62U A64U, for which the “self-cleavage kobs at 2500 uM GlcN6P” value is less than 1e-05 s⁻¹.

Consider A36C G38C U56C, for which the “self-cleavage kobs at 2500 uM GlcN6P” value was less than 1e-05 s⁻¹.

Consider G9C A14G G32C, for which the “self-cleavage kobs at 2500 uM GlcN6P” value was less than 1e-05 s⁻¹.

For the variant C50G U65G, the “self-cleavage kobs at 2500 uM GlcN6P” value was found to be 7.28e-05 ± 2.4e-05 s⁻¹.

Take C8A G29U C61U: the “self-cleavage kobs at 2500 uM GlcN6P” value was less than 1e-05 s⁻¹.

With G7U C11U A53C, the “self-cleavage kobs at 2500 uM GlcN6P” value was less than 1e-05 s⁻¹.

For C8G U46C A53C, the “self-cleavage kobs at 2500 uM GlcN6P” value was less than 1e-05 s⁻¹.

As for A6G A33G G35U G38C G62C C67A, the “self-cleavage kobs at 2500 uM GlcN6P” value is less than 1e-05 s⁻¹.

For G26U G29A U54A C70U C71U, the “self-cleavage kobs at 2500 uM GlcN6P” value amounted to 5.37e-05 ± 2.3e-05 s⁻¹.

As to A6U C11G A52C, the “self-cleavage kobs at 2500 uM GlcN6P” value was less than 1e-05 s⁻¹.

As for A6U A12U U55A, the “self-cleavage kobs at 2500 uM GlcN6P” value is 0.000377 ± 9.2e-05 s⁻¹.

As for G7U A33U G60C, the “self-cleavage kobs at 2500 uM GlcN6P” value was less than 1e-05 s⁻¹.

For the variant A6G U65A C70G, the “self-cleavage kobs at 2500 uM GlcN6P” value was less than 1e-05 s⁻¹.

Turning to G7A U46C U49G A52U, the “self-cleavage kobs at 2500 uM GlcN6P” value was less than 1e-05 s⁻¹.

As for G9U A39U A48U C50A U57C G66A, the “self-cleavage kobs at 2500 uM GlcN6P” value was less than 1e-05 s⁻¹.

Turning to G9C C16U G29C A48C U65A, the “self-cleavage kobs at 2500 uM GlcN6P” value was less than 1e-05 s⁻¹.

Take C8U G35A G37U A64U: the “self-cleavage kobs at 2500 uM GlcN6P” value is less than 1e-05 s⁻¹.

As to U30G G41C G60A, the “self-cleavage kobs at 2500 uM GlcN6P” value is less than 1e-05 s⁻¹.

Turning to C8A C11U G13C, the “self-cleavage kobs at 2500 uM GlcN6P” value was less than 1e-05 s⁻¹.

As to C8A C16A G38A A53G, the “self-cleavage kobs at 2500 uM GlcN6P” value was less than 1e-05 s⁻¹.

With G29C G41C G62A, the “self-cleavage kobs at 2500 uM GlcN6P” value is less than 1e-05 s⁻¹.

As for A6C G41U C50G A53U U55C, the “self-cleavage kobs at 2500 uM GlcN6P” value is less than 1e-05 s⁻¹.

In the case of G9U A12G A36C A42U U46A, the “self-cleavage kobs at 2500 uM GlcN6P” value was less than 1e-05 s⁻¹.

For G9U A36U U45C U49C, the “self-cleavage kobs at 2500 uM GlcN6P” value was less than 1e-05 s⁻¹.

The variants in a further data set derive from B1. The experiment in a line: self-cleavage kobs at 160 uM GlcN6P; higher = faster cleavage; RNA array. Particulars: with glucosamine-6-phosphate. In short, it runs like this: as §1
In the case of U55C C58U, the “self-cleavage kobs at 160 uM GlcN6P” value is less than 1e-05 s⁻¹.

G9C U69A C70U: the “self-cleavage kobs at 160 uM GlcN6P” value is less than 1e-05 s⁻¹.

Consider A14C G41C C68U, for which the “self-cleavage kobs at 160 uM GlcN6P” value is less than 1e-05 s⁻¹.

Regarding C50G G59C, the “self-cleavage kobs at 160 uM GlcN6P” value is 6.56e-05 ± 3.2e-05 s⁻¹.

For the variant G38A G43C G44U U56C, the “self-cleavage kobs at 160 uM GlcN6P” value was less than 1e-05 s⁻¹.

For G29U G35U G62U, the “self-cleavage kobs at 160 uM GlcN6P” value is less than 1e-05 s⁻¹.

With U47A G62C, the “self-cleavage kobs at 160 uM GlcN6P” value is less than 1e-05 s⁻¹.

Consider G37C C58G, for which the “self-cleavage kobs at 160 uM GlcN6P” value is less than 1e-05 s⁻¹.

For U47C G59A, the “self-cleavage kobs at 160 uM GlcN6P” value was less than 1e-05 s⁻¹.

A42C C67G C71U: the “self-cleavage kobs at 160 uM GlcN6P” value was less than 1e-05 s⁻¹.

Consider G41U G59U C71U, for which the “self-cleavage kobs at 160 uM GlcN6P” value is less than 1e-05 s⁻¹.

G29U C50U: the “self-cleavage kobs at 160 uM GlcN6P” value is less than 1e-05 s⁻¹.

Turning to G9A A52C U57C, the “self-cleavage kobs at 160 uM GlcN6P” value is less than 1e-05 s⁻¹.

Take C8G A12G G59U C70U: the “self-cleavage kobs at 160 uM GlcN6P” value is less than 1e-05 s⁻¹.

As for A36U U57G, the “self-cleavage kobs at 160 uM GlcN6P” value was less than 1e-05 s⁻¹.

G29U C61A C71U: the “self-cleavage kobs at 160 uM GlcN6P” value was less than 1e-05 s⁻¹.

Take U31G G35U G43U: the “self-cleavage kobs at 160 uM GlcN6P” value was less than 1e-05 s⁻¹.

Take C11G U31C G41C C70U: the “self-cleavage kobs at 160 uM GlcN6P” value was less than 1e-05 s⁻¹.

G44U U65G: the “self-cleavage kobs at 160 uM GlcN6P” value is less than 1e-05 s⁻¹.

For A36C G38C U56C, the “self-cleavage kobs at 160 uM GlcN6P” value was less than 1e-05 s⁻¹.

Consider C50G U65G, for which the “self-cleavage kobs at 160 uM GlcN6P” value is 4.97e-05 ± 1.7e-05 s⁻¹.

As to G35A G38A A39G G63C C67U, the “self-cleavage kobs at 160 uM GlcN6P” value was less than 1e-05 s⁻¹.

For G40A C58A, the “self-cleavage kobs at 160 uM GlcN6P” value is less than 1e-05 s⁻¹.

With C8G U46C A53C, the “self-cleavage kobs at 160 uM GlcN6P” value is less than 1e-05 s⁻¹.

For G26U G29A U54A C70U C71U, the “self-cleavage kobs at 160 uM GlcN6P” value was 0.000121 ± 3.5e-05 s⁻¹.

On to A39C G44U, for which the “self-cleavage kobs at 160 uM GlcN6P” value is less than 1e-05 s⁻¹.

Regarding G13C A15U G51U C67U C68G, the “self-cleavage kobs at 160 uM GlcN6P” value is 6.58e-05 ± 2.5e-05 s⁻¹.

Turning to U30G G41C G60A, the “self-cleavage kobs at 160 uM GlcN6P” value was less than 1e-05 s⁻¹.

In the case of U45G A48G G59U, the “self-cleavage kobs at 160 uM GlcN6P” value is less than 1e-05 s⁻¹.

On to G29C G41C G62A, for which the “self-cleavage kobs at 160 uM GlcN6P” value is less than 1e-05 s⁻¹.

Take G9U A36U U45C U49C: the “self-cleavage kobs at 160 uM GlcN6P” value is less than 1e-05 s⁻¹.

Variants of B1 are the subject of another data set. The experiment in a line: self-cleavage kobs at 10000 uM GlcN6P; higher = faster cleavage; RNA array. The following applies: with glucosamine-6-phosphate. In short, it runs like this: as §1
In the case of U55C C58U, the “self-cleavage kobs at 10000 uM GlcN6P” value amounted to 6.55e-05 ± 8.7e-06 s⁻¹.

Regarding C8G G38C U54A G66A U69G, the “self-cleavage kobs at 10000 uM GlcN6P” value is less than 1e-05 s⁻¹.

As to G37C C58G, the “self-cleavage kobs at 10000 uM GlcN6P” value was less than 1e-05 s⁻¹.

For the variant G7U U46C A48G C50U U55G, the “self-cleavage kobs at 10000 uM GlcN6P” value was less than 1e-05 s⁻¹.

In the case of A36U U57G, the “self-cleavage kobs at 10000 uM GlcN6P” value is less than 1e-05 s⁻¹.

For the variant G44U U65G, the “self-cleavage kobs at 10000 uM GlcN6P” value is 0.000152 ± 2.6e-05 s⁻¹.

On to A6C G41U C50G A53U U55C, for which the “self-cleavage kobs at 10000 uM GlcN6P” value was less than 1e-05 s⁻¹.

The record behind these values is the supplement of paper PMC7125110.
